Laboratory results taken from paper PMC12136788.
Some of the results follow.

T1: UNK ZnF1-3 (human, UniProt Q9C0B0 31-174)
T1 sequence: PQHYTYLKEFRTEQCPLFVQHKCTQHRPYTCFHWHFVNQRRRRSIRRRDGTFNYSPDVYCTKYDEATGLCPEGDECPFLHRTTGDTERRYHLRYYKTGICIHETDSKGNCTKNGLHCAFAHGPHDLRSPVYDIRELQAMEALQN

B1: chr7:77240115:77240116:+_ENSG00000127947_ENST00000248594|hu_hu|FALSE|FALSE (ssRNA)
RNA: GGGAGUUCUACAGUCCGACGAUCUUCAUAUUGCUCCUUUGUUUGUACUGCAGAAUGCCUUUGUGUUCUCAUUUCUUGUAUUAAAUUAAAUACAUUAAAUUCCUCUGGUAUUUUCCCAGCUUUUAGUAAAUUCCACGUAUAAUCCAACAGAGGAUUGAGCAUCA
B2: chr2:47387770:47387771:-_ENSG00000143933_ENST00000272298|hu_mus|hu_hu_hu_mus_True|1_108 (ssRNA)
RNA: GGGAGUUCUACAGUCCGACGAUCAAGGUUUUAGGACAAUGACAGUAAGAUAAGGGAAGAAAACAUGGAGGAAUGAAGUCCUAAUUACUAUACAUGCAUAUUUUUUGACAGUAGGGGGGGGGAACCUUUUACAGAUAUUACAAACAACAGAGGAUUGAGCAUCA
B3: chr2:202488911:202488912:-_ENSG00000155755_ENST00000286196|hu_mus|hu_hu_hu_mus_False|1_108 (ssRNA)
RNA: GGGAGUUCUACAGUCCGACGAUCAUUUAACAUUUUUUCAUAAUCUCCAGUAGCAUUUCAGCAUUAUGUAACAAAAGCUCAAUUGUAAAUACAUGUAUCUUAUAAAAAUACACUUAAAAACACGAGUGGGGAGCGCACAAAUACCAACAGAGGAUUGAGCAUCA
B4: 13610230_13610976_1741_CDS_ENSG00000038219_ENST00000040738|human|control|control (ssRNA)
RNA: GGGAGUUCUACAGUCCGACGAUCUCUGGCGGCUUUAGGUUCCAAACUCUUUGUUGAUGAUUCUUCUAAGUCCACACUACUCCUGCCUUGACCCUUGGUUUUUGAAGACUUUGUCUUUUCUGCUUUCUGUUUUCGUUUUUCUUCCAACAGAGGAUUGAGCAUCA
B5: 73477012_73477521_1239_CDS_ENSG00000135624_ENST00000258091|human|control|control (ssRNA)
RNA: GGGAGUUCUACAGUCCGACGAUCCUCUGUCUCCUCCAUAAACUGCUCGGCGCCGCCACGGAGAAUGAAGGUGCAUGUCUUGGCCUUGGGGCAGCCAGUAAAAAAAUUGUACCUCUCGCCUCCAAUCUGGGUCUCUUCAAACACCAACAGAGGAUUGAGCAUCA
B6: chr10:10886374:10886375:+_ENSMUSG00000090112_ENSMUST00000044053|mus_hu|FALSE|FALSE (ssRNA)
RNA: GGGAGUUCUACAGUCCGACGAUCAUGUGGGAUAUCGACAUAAUUUAAUUCUGAACGCAGUACAUCAUAGGUAAUGAUAACUAUAUCCUGUUCUGCCAAAAAAUGAGGUUGUAAAAAGCCAUCUUUCUUCACUCCUUGAUAUACCAACAGAGGAUUGAGCAUCA
B7: chr17:65740002:65740003:+_ENSG00000130935_ENST00000581375|hu_hu|hu_hu_hu_mus_False|18_68 (ssRNA)
RNA: GGGAGUUCUACAGUCCGACGAUCAACAAAUCUUUCUUCCCUGGACGAACAGGAAGAUUCAUAUUAACUUUAUAAAAUAUCCAUCAAGUUAGGUGUGGUGGCCACACCUUUACUCCCCACUUCAAUUGAGGUGGAUCUCUGAGUCAACAGAGGAUUGAGCAUCA
B8: 15623581_15626486_3377_3pUTR_ENSMUSG00000021733_ENSMUST00000057015|mouse|control|control (ssRNA)
RNA: GGGAGUUCUACAGUCCGACGAUCUGUUAACAACUGAAGGGUCAAUACUAUAUUUUAGAGUUUUCACUGGAAUCUGCAGGAGACUCCCUCUUUCGAAUGGGAGGUGCACAGUGUCCUCAUCAUCCUGAAGCAUCCGUUCAGCUUCAACAGAGGAUUGAGCAUCA
B9: chr2:84898283:84898284:+_ENSMUSG00000033955_ENSMUST00000148682|mus_mus|motif|central (ssRNA)
RNA: GGGAGUUCUACAGUCCGACGAUCUUGAGGUGACCCAGGUCUUGGAAACGUCGGUAGGUGCUUCAGAGCAAGCCAGUUUAGCGGGGUCCCCAUUCAUUGCCGGGCUGGAAGUGAGGUUCCUCUCCUCAGGAGUCUUGCUAUGCUCAACAGAGGAUUGAGCAUCA
B10: chr4:39739082:39739083:+_ENSG00000078140_ENST00000261427|perfect_dup|motif|central (ssRNA)
RNA: GGGAGUUCUACAGUCCGACGAUCUAUUUUUAUCUCUAGUUGGUAUCUUCCUCCUUCAUAUGGUGUGUCUGGAGGUCCUGCGGUUUCUCCUCUUAAUUCUGUAAAAUUCUCAUCUACAAGAUCUACUUUAAUUUGAUUUUUGCUCAACAGAGGAUUGAGCAUCA
B11: chrX:129364583:129364584:-_ENSG00000056277_ENST00000370978|hu_hu|motif|central (ssRNA)
RNA: GGGAGUUCUACAGUCCGACGAUCAGUCUUUGGCUCUUUCUCAGUGACUCCUUCAUGCCUUCCAUAAUAAAACUCAUUGACGGACAUGAUCAACUUUCCUGUCUCUGAAUCAGUCUUGUCUUCAUCACAUGGACGUUCUGAUUUCAACAGAGGAUUGAGCAUCA
B12: chr14:89307221:89307222:+_ENSG00000165533_ENST00000346301|hu_mus|hu_hu_hu_mus_False|68_108 (ssRNA)
RNA: GGGAGUUCUACAGUCCGACGAUCUCCUGUCUGAUUAGUGCCAGGGAGCUUCAAAGAUGUGCCAGGGCGUGGAACUUGAGCAAUAGCAUUUUCAUCCAGGAUCAUUUCAGCAAUUCCUUCCUGGUCCACAUCAAUUUCAUCUAUCAACAGAGGAUUGAGCAUCA
B13: chr11:119170673:119170674:+_ENSG00000110395_ENST00000264033|hu_mus|FALSE|FALSE (ssRNA)
RNA: GGGAGUUCUACAGUCCGACGAUCACUGGAGACUGCAGGACUACAAAAACACUCUUAAGACCAAUACAACAAUGAAACACAUCAGCUGCUCCAUUUUCAUUCCACUGCUUUGAAAUCUUGGAACCAUAUGUGUCGAUCCCCACACAACAGAGGAUUGAGCAUCA
B14: 104554422_104554542_102_5pUTR_ENSMUSG00000032621_ENSMUST00000074616|mouse|control|control (ssRNA)
RNA: GGGAGUUCUACAGUCCGACGAUCACGCUUUCCCAGGACGCUGUUUUCGCGGUGAUCGAAAGUUGUGUUACACAUGACAACCGUUCGUGUUGGCUGCGUCACUAAUAGCACACAGAACAUCAGAUACAGAAAAGAAGAACAUUUCAACAGAGGAUUGAGCAUCA
B15: 48623262_48626664_2083_CDS_ENSMUSG00000031558_ENSMUST00000170109|mouse|control|control (ssRNA)
RNA: GGGAGUUCUACAGUCCGACGAUCAUUGUCAUAUAAAGAGAGCAGACGCACAGAGCCGAGUCCUAUGAAACUGUCGUUCCCAACACAGCUUAUUCGAUUACUUCUCAGCAUCAAUGUUUUGAGGCUCUCCAGUCCUUUGAACAUCAACAGAGGAUUGAGCAUCA
B16: chr10:70508923:70508924:+_ENSG00000060339_ENST00000535016|hu_hu|FALSE|FALSE (ssRNA)
RNA: GGGAGUUCUACAGUCCGACGAUCUCUUCCUGAAAAUCGGGAUGGGGGAUCUAAUCGUCGUGCCGGUUGUGGCUGUGAAACUAUACGAACAGGAGGCUGCAAUAAACCAGCUUUUUGCUGAGGCUGCUGUAAUAAGGGCUGUGGCAACAGAGGAUUGAGCAUCA
B17: chr6:40197388:40197389:+_ENSMUSG00000057716_ENSMUST00000061740|mus_mus|mus_mus_mus_hu_False|58_88 (ssRNA)
RNA: GGGAGUUCUACAGUCCGACGAUCGAGACACUGGGGUGGAUUUAUUCUCAGUUUGGGUGGGUGCUAGCCACUAAGACAGCUAUUUUGGGAUUCAUGGCCUUGAAUAUCAAGAGGGAAAGGAAGAGGAUGGAAAGAGUCAAGAGUCAACAGAGGAUUGAGCAUCA
B18: chr7:151048522:151048523:+_ENSG00000013374_ENST00000566856|hu_mus|hu_hu_hu_mus_True|1_68 (ssRNA)
RNA: GGGAGUUCUACAGUCCGACGAUCCUGUUUCUUAUUUAUUACGAUCUUGAUGUAAUUUUCUUGAAAUCCAAAGGUUUCAGCUAUUUGACACCUCAGGUCUCUACCAGUGACAUGCAAGCGGGUCUCCAACAAGCUUUUCCUAUCCAACAGAGGAUUGAGCAUCA
B19: chr6:149979360:149979361:-_ENSG00000131023_ENST00000543571|hu_mus|FALSE|FALSE (ssRNA)
RNA: GGGAGUUCUACAGUCCGACGAUCAGGGAAUGAUUGGGAAAAUACAAAUAGAUUCAUUAAAAACAGACUGAUUAUUUGUUCUAGUACAUUCAGAAAUAUCCAAAAACAGUUGUUAUAUUGCAAAGCUGUAAUUUUUCCUAGCAACAACAGAGGAUUGAGCAUCA
B20: chr16:94664741:94664742:+_ENSMUSG00000040785_ENSMUST00000117648|mus_mus|motif|central (ssRNA)
RNA: GGGAGUUCUACAGUCCGACGAUCUGGCAUGGAUCUUUGCAUUGGAUACUCAGAAGAAAUGUUGGCCAAAGGUGUGUAAAUGCGGGUGAACUGCGACAGGCUAGGUACCAUGUUAAUGUACGCUGGUCGCUGGGUGAUGCCAAACAACAGAGGAUUGAGCAUCA
B21: chr3:33650081:33650082:-_ENSG00000163539_ENST00000461133|hu_mus|FALSE|FALSE (ssRNA)
RNA: GGGAGUUCUACAGUCCGACGAUCCAAAACAGCUGCAUGUCUUUCCAGUGAAUGAGUCUGCCAUUCUUGCAGCAGCAAAUCUAAAAAUUCAAAUGAACGUCUCCUUACAGGAACUGACUUUGAUGUGCAGUUGCUUGUUAUUAACAACAGAGGAUUGAGCAUCA
B22: chr22:26877738:26877739:-_ENSG00000100099_ENST00000336873|hu_hu|FALSE|FALSE (ssRNA)
RNA: GGGAGUUCUACAGUCCGACGAUCUCCACCACGAGGCUGACUUUGCCUCUGUGGAGGUAGAGGUGGCCAUCUACUGUGCAGUCAUCCUCAUUCUCUUCAUUUAGGUUUUCUUUUCCGGUAUCACUUCUUUCUCCCUAGCUGUGACAACAGAGGAUUGAGCAUCA

Each binder was assayed against T1, UNK ZnF1-3 (assay: nsRBNS (natural sequence RNA bind-n-seq); RBNS binding buffer (assumed for nsRBNS): 25 mM Tris pH 7.5, 150 mM KCl, 3 mM MgCl2, 0.01% Triton X-100, 500 ug/ml BSA, 20 U/ml SUPERase-In, 4 C; UNK is unkempt and MSI1 is Musashi-1; names of the RNAs are library labels; protein concentration not given here; high values mean tight binding).

Row | Binder | binding signal [enrichment R]
1 | B1 | 0.606
2 | B2 | 1.93
3 | B3 | 1.19
4 | B4 | 0.177
5 | B5 | 1.24
6 | B6 | 0.817
7 | B7 | 0.644
8 | B8 | 0.51
9 | B9 | 0.934
10 | B10 | 0.313
11 | B11 | 0.56
12 | B12 | 0.863
13 | B13 | 1.2
14 | B14 | 0.919
15 | B15 | 1.05
16 | B16 | 1.5
17 | B17 | 2.08
18 | B18 | 0.699
19 | B19 | 0.703
20 | B20 | 1.14
21 | B21 | 0.734
22 | B22 | 0.622
